{
  "source": "the supplement of paper PMC8728848",
  "experiment_in_all_cases": "glycan array binding signal (z-score within array); higher = stronger binding",
  "settings_in_all_cases": "glycan notation: IUPAC condensed, linker removed",
  "key": {"[1]": {"biological_target": "Fuc(b1-3)GlcNAc", "summary_of_the_method": "(§1)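 From the Consortium for Functional Glycomics database, 3228 arrays were curated, keeping only those whose protein sequence was available. Binding is given as a within-array Z-score averaged across arrays sharing a protein sequence and across linkers. Negative Z-scores can be read as non-binding.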"}, "[2]": {"biological_target": "Gal(a1-2)Gal", "summary_of_the_method": "as §1"}, "[3]": {"biological_target": "Gal(a1-3)Gal", "summary_of_the_method": "as §1"}, "[4]": {"biological_target": "Gal(a1-3)Gal(b1-3)GlcNAc", "summary_of_the_method": "as §1"}, "[5]": {"biological_target": "Gal(a1-3)Gal(b1-3)GlcNAc(b1-2)Man", "summary_of_the_method": "as §1"}, "[6]": {"biological_target": "Gal(a1-3)Gal(b1-3)GlcNAc(b1-2)Man(a1-3)[Gal(a1-3)Gal(b1-3)GlcNAc(b1-2)Man(a1-6)]Man(b1-4)GlcNAc(b1-4)GlcNAc", "summary_of_the_method": "as §1"}, "[7]": {"biological_target": "Gal(a1-3)Gal(b1-3)GlcNAc(b1-3)GalNAc", "summary_of_the_method": "as §1"}, "[8]": {"biological_target": "Gal(a1-3)Gal(b1-3)GlcNAc(b1-6)GalNAc", "summary_of_the_method": "as §1"}, "[9]": {"biological_target": "Gal(a1-3)Gal(b1-3)[Fuc(a1-4)]GlcNAc(b1-2)Man(a1-3)[Gal(a1-3)Gal(b1-3)[Fuc(a1-4)]GlcNAc(b1-2)Man(a1-6)]Man(b1-4)GlcNAc(b1-4)GlcNAc", "summary_of_the_method": "as §1"}, "[10]": {"biological_target": "Gal(a1-3)Gal(b1-4)Glc", "summary_of_the_method": "as §1"}, "[11]": {"biological_target": "Gal(a1-3)Gal(b1-4)GlcNAc", "summary_of_the_method": "as §1"}, "[12]": {"biological_target": "Gal(a1-3)Gal(b1-4)GlcNAc(b1-2)Man", "summary_of_the_method": "as §1"}, "[13]": {"biological_target": "Gal(a1-3)Gal(b1-4)GlcNAc(b1-2)Man(a1-3)[Gal(a1-3)Gal(b1-4)GlcNAc(b1-2)Man(a1-6)]Man(b1-4)GlcNAc(b1-4)GlcNAc", "summary_of_the_method": "as §1"}, "[14]": {"biological_target": "Gal(a1-3)Gal(b1-4)GlcNAc(b1-3)GalNAc", "summary_of_the_method": "as §1"}, "[15]": {"biological_target": "Gal(a1-3)Gal(b1-4)GlcNAc(b1-6)GalNAc", "summary_of_the_method": "as §1"}, "[16]": {"biological_target": "Gal(a1-3)Gal(b1-4)[Fuc(a1-3)]GlcNAc", "summary_of_the_method": "as §1"}, "[17]": {"biological_target": "Gal(a1-3)Gal(b1-4)[Fuc(a1-3)]GlcNAc(b1-2)Man(a1-3)[Gal(a1-3)Gal(b1-4)[Fuc(a1-3)]GlcNAc(b1-2)Man(a1-6)]Man(b1-4)GlcNAc(b1-4)GlcNAc", "summary_of_the_method": "as §1"}, "[18]": {"biological_target": "Gal(a1-3)GalNAc", "summary_of_the_method": "as §1"}, "[19]": {"biological_target": "Gal(a1-3)[Gal(a1-4)]Gal(b1-4)GlcNAc", "summary_of_the_method": "as §1"}, "[20]": {"biological_target": "Gal(a1-4)Gal(b1-3)GlcNAc(b1-2)Man(a1-3)[Gal(a1-4)Gal(b1-3)GlcNAc(b1-2)Man(a1-6)]Man(b1-4)GlcNAc(b1-4)GlcNAc", "summary_of_the_method": "as §1"}, "[21]": {"biological_target": "Gal(a1-4)Gal(b1-4)Glc", "summary_of_the_method": "as §1"}, "[22]": {"biological_target": "Gal(a1-4)Gal(b1-4)GlcNAc", "summary_of_the_method": "as §1"}, "[23]": {"biological_target": "Gal(a1-4)Gal(b1-4)GlcNAc(b1-2)Man(a1-3)[Gal(a1-4)Gal(b1-4)GlcNAc(b1-2)Man(a1-6)]Man(b1-4)GlcNAc(b1-4)GlcNAc", "summary_of_the_method": "as §1"}, "[24]": {"biological_target": "Gal(a1-4)Gal(b1-4)GlcNAc(b1-3)Gal(b1-4)Glc", "summary_of_the_method": "as §1"}, "[25]": {"biological_target": "Gal(a1-4)GlcNAc", "summary_of_the_method": "as §1"}, "[26]": {"biological_target": "Gal(a1-6)Glc", "summary_of_the_method": "as §1"}, "[27]": {"biological_target": "Gal(b1-2)Gal", "summary_of_the_method": "as §1"}, "[28]": {"biological_target": "Gal(b1-3)Gal", "summary_of_the_method": "as §1"}, "[29]": {"biological_target": "Gal(b1-3)Gal(b1-4)GlcNAc", "summary_of_the_method": "as §1"}, "[30]": {"biological_target": "Gal(b1-3)Gal(b1-4)GlcNAc(b1-2)Man(a1-3)[Gal(b1-3)Gal(b1-4)GlcNAc(b1-2)Man(a1-6)]Man(b1-4)GlcNAc(b1-4)GlcNAc", "summary_of_the_method": "as §1"}, "[31]": {"biological_target": "Gal(b1-3)GalNAc", "summary_of_the_method": "as §1"}, "[32]": {"biological_target": "Gal(b1-3)GalNAc(a1-3)[Fuc(a1-2)]Gal(b1-4)Glc", "summary_of_the_method": "as §1"}, "[33]": {"biological_target": "Gal(b1-3)GalNAc(a1-3)[Fuc(a1-2)]Gal(b1-4)GlcNAc", "summary_of_the_method": "as §1"}, "[34]": {"biological_target": "Gal(b1-3)GalNAc(b1-3)Gal", "summary_of_the_method": "as §1"}, "[35]": {"biological_target": "Gal(b1-3)GalNAc(b1-3)Gal(a1-4)Gal(b1-4)Glc", "summary_of_the_method": "as §1"}, "[36]": {"biological_target": "Gal(b1-3)GalNAc(b1-4)Gal(b1-4)Glc", "summary_of_the_method": "as §1"}, "[37]": {"biological_target": "Gal(b1-3)GalNAc(b1-4)[Neu5Ac(a2-3)]Gal(b1-4)Glc", "summary_of_the_method": "as §1"}, "[38]": {"biological_target": "Gal(b1-3)GlcNAc", "summary_of_the_method": "as §1"}, "[39]": {"biological_target": "Gal(b1-3)GlcNAc(a1-3)Gal(b1-4)GlcNAc", "summary_of_the_method": "as §1"}, "[40]": {"biological_target": "Gal(b1-3)GlcNAc(a1-6)Gal(b1-4)GlcNAc", "summary_of_the_method": "as §1"}, "[41]": {"biological_target": "Gal(b1-3)GlcNAc(b1-2)Man", "summary_of_the_method": "as §1"}, "[42]": {"biological_target": "Gal(b1-3)GlcNAc(b1-2)Man(a1-3)[Gal(b1-3)GlcNAc(b1-2)Man(a1-6)]Man(b1-4)GlcNAc(b1-4)GlcNAc", "summary_of_the_method": "as §1"}, "[43]": {"biological_target": "Gal(b1-3)GlcNAc(b1-2)Man(a1-3)[Gal(b1-3)GlcNAc(b1-2)Man(a1-6)]Man(b1-4)GlcNAc(b1-4)[Fuc(a1-6)]GlcNAc", "summary_of_the_method": "as §1"}, "[44]": {"biological_target": "Gal(b1-3)GlcNAc(b1-2)Man(a1-3)[GlcNAc(b1-4)][Gal(b1-3)GlcNAc(b1-2)Man(a1-6)]Man(b1-4)GlcNAc(b1-4)GlcNAc", "summary_of_the_method": "as §1"}, "[45]": {"biological_target": "Gal(b1-3)GlcNAc(b1-2)[Gal(b1-3)GlcNAc(b1-6)]Man(a1-6)[Gal(b1-3)GlcNAc(b1-2)Man(a1-3)]Man(b1-4)GlcNAc(b1-4)GlcNAc", "summary_of_the_method": "as §1"}},
  "note": "The other results are listed elsewhere or left out.",
  "data": [
    {"binder": "OrysaEULS2 (Oryza sativa) (protein) MVYCRANPNYAMTARNGAVVLAPANPKDEYQHWIKDMRWSTSIKDEEGYPAFALVNKATGQAIKHSLGQSHPVRLVPYNPEVMDESVLWTESRDVGNGFRCIRMVNNIYLNFDAFHGDKYHGGVRDGTDIVLWKWCEGDNQRWKIQPYYILEQKLISEEDLNSAVDHHHHHH", "values": [
      {"measurement": "glycan array binding signal (z-score)", "setting": "[1]", "result": -0.201},
      {"measurement": "glycan array binding signal (z-score)", "setting": "[2]", "result": -0.168},
      {"measurement": "glycan array binding signal (z-score)", "setting": "[3]", "result": -0.137},
      {"measurement": "glycan array binding signal (z-score)", "setting": "[4]", "result": -0.039},
      {"measurement": "glycan array binding signal (z-score)", "setting": "[5]", "result": -0.28},
      {"measurement": "glycan array binding signal (z-score)", "setting": "[6]", "result": 0.432},
      {"measurement": "glycan array binding signal (z-score)", "setting": "[7]", "result": -0.176},
      {"measurement": "glycan array binding signal (z-score)", "setting": "[8]", "result": -0.212},
      {"measurement": "glycan array binding signal (z-score)", "setting": "[9]", "result": 0.2},
      {"measurement": "glycan array binding signal (z-score)", "setting": "[10]", "result": -0.204},
      {"measurement": "glycan array binding signal (z-score)", "setting": "[11]", "result": -0.19},
      {"measurement": "glycan array binding signal (z-score)", "setting": "[12]", "result": -0.269},
      {"measurement": "glycan array binding signal (z-score)", "setting": "[13]", "result": 1.29},
      {"measurement": "glycan array binding signal (z-score)", "setting": "[14]", "result": -0.213},
      {"measurement": "glycan array binding signal (z-score)", "setting": "[15]", "result": -0.208},
      {"measurement": "glycan array binding signal (z-score)", "setting": "[16]", "result": -0.216},
      {"measurement": "glycan array binding signal (z-score)", "setting": "[17]", "result": -0.064},
      {"measurement": "glycan array binding signal (z-score)", "setting": "[18]", "result": -0.198},
      {"measurement": "glycan array binding signal (z-score)", "setting": "[19]", "result": -0.09},
      {"measurement": "glycan array binding signal (z-score)", "setting": "[20]", "result": 2.38},
      {"measurement": "glycan array binding signal (z-score)", "setting": "[21]", "result": -0.2},
      {"measurement": "glycan array binding signal (z-score)", "setting": "[22]", "result": -0.211},
      {"measurement": "glycan array binding signal (z-score)", "setting": "[23]", "result": 0.579},
      {"measurement": "glycan array binding signal (z-score)", "setting": "[24]", "result": -0.209},
      {"measurement": "glycan array binding signal (z-score)", "setting": "[25]", "result": -0.191},
      {"measurement": "glycan array binding signal (z-score)", "setting": "[26]", "result": -0.189},
      {"measurement": "glycan array binding signal (z-score)", "setting": "[27]", "result": -0.142},
      {"measurement": "glycan array binding signal (z-score)", "setting": "[28]", "result": -0.207},
      {"measurement": "glycan array binding signal (z-score)", "setting": "[29]", "result": -0.212},
      {"measurement": "glycan array binding signal (z-score)", "setting": "[30]", "result": 1.1},
      {"measurement": "glycan array binding signal (z-score)", "setting": "[31]", "result": -0.18},
      {"measurement": "glycan array binding signal (z-score)", "setting": "[32]", "result": -0.179},
      {"measurement": "glycan array binding signal (z-score)", "setting": "[33]", "result": -0.204},
      {"measurement": "glycan array binding signal (z-score)", "setting": "[34]", "result": -0.288},
      {"measurement": "glycan array binding signal (z-score)", "setting": "[35]", "result": -0.193},
      {"measurement": "glycan array binding signal (z-score)", "setting": "[36]", "result": -0.2},
      {"measurement": "glycan array binding signal (z-score)", "setting": "[37]", "result": -0.181},
      {"measurement": "glycan array binding signal (z-score)", "setting": "[38]", "result": -0.199},
      {"measurement": "glycan array binding signal (z-score)", "setting": "[39]", "result": -0.191},
      {"measurement": "glycan array binding signal (z-score)", "setting": "[40]", "result": -0.171},
      {"measurement": "glycan array binding signal (z-score)", "setting": "[41]", "result": -0.251},
      {"measurement": "glycan array binding signal (z-score)", "setting": "[42]", "result": 1.19},
      {"measurement": "glycan array binding signal (z-score)", "setting": "[43]", "result": 0.304},
      {"measurement": "glycan array binding signal (z-score)", "setting": "[44]", "result": -0.12},
      {"measurement": "glycan array binding signal (z-score)", "setting": "[45]", "result": 0.672}
    ]}
  ]
}
